# Measured values published in PubChem BioAssay AID624296 (National Center for Advancing Translational Sciences (NCATS), 2012).
# Where “and” joins values, the source holds several entries; their conditions need not be identical. Equal values may be shown once. About 9,900 (2.8%) of roughly 350,000 compounds were called active. The inconclusive results got no clear call from the source; some entries with a clear call stand among them for comparison. Calls follow the shape of the dose curve; as a rule, active = well fitted activation curve with a large enough effect; inconclusive = small, poorly fitted or top-dose-only effect; inactive = no such curve, though single readings can be large or run the other way. Potencies of inconclusive entries are doubtful fits and often do not repeat.
# Test: A quantitative high throughput screen for small molecules that induce DNA re-replication in MCF 10a normal breast cells. Also: nearly all actives have a fitted effect of over 50% in size. As to activity, positive = re-replication: % of control where 0% means no effect.
# Conditions: MCF 10A DNA re-replication, Hoechst nuclear intensity, 48 h; activity, positive = re-replication: at 46.1 µM (top of the series)
# Potency is read from the fitted curve at half-maximal effect; tags tell the direction and shape of the fitted curve.
Structure (SMILES),Potency,"activity, positive = re-replication"
Cc1cc(C)c2nc(N3C(=O)C(O)=C(C(=O)c4ccco4)C3c3ccc(O)cc3)sc2c1 (stereo not drawn),"inconclusive: 29.1 µM [activator, single point]",
CC1=C(C(=O)OCc2ccc3c(c2)OCO3)C(c2cccc([N+](=O)[O-])c2)NC(=O)N1 (stereo not drawn),,inactive: 4.58%
COc1ccccc1Nc1ncc(C(=O)N2CCN(Cc3ccc(OC)c(OC)c3OC)CC2)c2ccccc12,"inconclusive: 18.4 µM [activator, single point]",
CCNC1=C(Cl)C(=O)c2ccccc2C1=O,"inconclusive: 29.1 µM [activator, partial curve, poor fit]",
S=c1[nH]nc(-c2ccco2)n1/N=C/C=C/c1ccco1,,inactive: 8.35%
CCn1ncc(Br)c1C(=O)Nc1ccc(F)c([N+](=O)[O-])c1,"inconclusive: 23.1 µM [activator, single point]",
CCCCN(C)CCCNC(=O)CN1C(=O)CSc2ccc(S(=O)(=O)N3CCOCC3)cc21,"inactive and inconclusive: 18.4 µM [activator, partial curve, poor fit]",
CN(CC(=O)Nc1ccc(F)cc1)C(=O)c1ccc2ccccc2n1,,inactive: -0.409%
CC(C)OC(=O)C(C#N)c1nc2ccccc2nc1N1CCCC1 (stereo not drawn),"inconclusive: 20.6 µM [activator, partial curve, poor fit]",
Cc1nnc2c(SC(C)C)nc3ccccc3n12,,inactive: 12.3%
Cc1cc(N2C(=O)C(O)=C(C(=O)c3cccs3)C2c2ccccc2)no1 (stereo not drawn),"inconclusive: 23.1 µM [activator, partial curve, poor fit]",
O=C(Nc1ccc(Nc2ccccc2)cc1)C(Cl)(Cl)Cl,"inconclusive: 18.4 µM [activator, partial curve, poor fit]",
Cc1cc(C)c(C)c(S(=O)(=O)Nc2ccccc2N2CCOCC2)c1C,"inconclusive: 25.9 µM [activator, single point]",
CCn1c(SCC(=O)Nc2cccc(OC)c2)nc2ccccc2c1=O,,inactive: 0.04%
CCn1c(N2CCN(CC(=O)c3ccc(OC)cc3)CC2)nc2ccccc21,,inactive: 0.702%
Cc1ccc(CNC(=O)C2(C(F)(F)F)C/C(=C\Cc3ccccc3)CCCO2)o1 (stereo not drawn),"inconclusive: 29.1 µM [activator, single point]",
O=C(Cn1cnc2cc([N+](=O)[O-])ccc2c1=O)Nc1ccc(Br)cc1,"inconclusive: 29.1 µM [activator, single point]",
COc1ccccc1NC(=O)COC(=O)c1cnccn1,,inactive: -3.29%
O=C1CSc2ccc(C(=O)NCCc3ccc(Cl)cc3Cl)cc2N1,,inactive: 21.7%
O=C(COC(=O)CCN1C(=O)C2CC=CCC2C1=O)Nc1ccc([N+](=O)[O-])cc1 (stereo not drawn),,inactive: -1.91%
COC(=O)CCc1c(COC(C)=O)[nH]c(C(=O)OCc2ccccc2)c1C,"inconclusive: 29.1 µM [activator, single point]",
CN(Cc1ccccc1Br)C(=O)CN1C(=O)NC2(CCCCCC2)C1=O,"inconclusive: 29.1 µM [activator, single point]",
CCCc1nn(C)c(C(=O)Nc2ccc(Cl)cc2)c1Cl,,inactive: -1.21%
Cn1cccc1/C=C1\CCC/C(=C\c2cccn2C)C1=O,"inconclusive: 29.1 µM [activator, single point]",
CC(C)NC(=S)N/N=C/c1ccc2c(c1)OCCO2,"inconclusive: 6.51 µM [activator, single point]",

Structure (SMILES),Potency,"activity, positive = re-replication"
Cc1ccc2nc(SCC(=O)Nc3cc(C(C)(C)C)nn3-c3ccccc3)[nH]c2c1,"inconclusive: 29.1 µM [activator, single point]",
CCOC(=O)c1ccc(-c2ccc(-c3cc(=O)oc4cc(OC)c(OC)c(OC)c34)cc2)cc1,"inconclusive: 6.51 µM [activator, single point]",
CN(CC(=O)Nc1ccccc1C(F)(F)F)C(=O)C1CCN(C(=O)c2ccc(Cl)cc2)CC1,,inactive: -0.206%
O=C(O)C[C@H]1c2ccc(C(F)(F)F)cc2S(=O)(=O)N1Cc1ccccc1,"inconclusive: 2.31 µM [activator, partial curve, poor fit]",
C/C(=N\NC(=O)C(C)Sc1ccccc1)C(C)(C)C (stereo not drawn),,inactive: -7.25%
CN(C)c1ccc(NC(=O)CSc2nc3ccccc3c(=O)n2C2CCCCC2)cc1,"inconclusive: 23.1 µM [activator, partial curve, poor fit]",
COc1ccc(N2CCN(C(=O)c3ccc(SC)cc3OC)CC2)cc1,,inactive: -0.98%
Cc1cc(C(F)(F)F)nc(NCc2cccnc2)n1,"inconclusive: 23.1 µM [activator, partial curve, poor fit]",
COC(=O)c1sc(NC(=O)c2ccc([N+](=O)[O-])o2)c(C#N)c1C,active: 2.91 µM,
CC1=NN2C(=N)/C(=C\c3cc(C)n(Cc4ccccc4)c3C)C(=O)N=C2S1,"inconclusive: 16.4 µM [activator, single point]",
COC(C/C=C\[C@@H](O)COCc1ccccc1)OC,"inconclusive: 0.82 µM [activator, partial curve, poor fit]",
CCCCCC(=O)Nc1ccc(N2CCN(CC)CC2)c(Cl)c1,"inconclusive: 29.1 µM [activator, single point]",
O=C1N/C(=C/c2cccn2-c2ccc(F)cc2)C(=O)N1Cc1ccccc1,"inconclusive: 16.4 µM [activator, single point]",
CC(C)CCNC(=O)C(c1ccc(O)cc1)N(Cc1ccco1)C(=O)CCC(=O)Nc1nccs1 (stereo not drawn),,inactive: -18.2%
CCOC(=O)COc1cccc2c(=O)n(CC(=O)NCc3ccccc3)ccc12,active: 1.46 µM,
CC(=O)c1c(C)[nH]c(C(=O)NNC(=O)COc2cc(C)ccc2C(C)C)c1C,,inactive: 1.28%
COc1ccc(CCNS(=O)(=O)c2ccc(Br)cc2)cc1,"inconclusive: 20.6 µM [activator, single point]",
CC(=O)c1ccc(NC(=S)NC2CCCC(C)C2C)cc1 (stereo not drawn),,inactive: -0.048%
Cc1ccc(NC(=O)COc2ccc3c(c2)CCC3)nc1,,inactive: 7.37%
Cc1ccc2c(Cl)c(C(=O)Nc3cc(C)on3)sc2c1,"inconclusive: 29.1 µM [activator, partial curve, poor fit]",
O=C(Nc1ccccc1C(=O)NCCCN1CCOCC1)c1ccc(Cl)cc1,,inactive: -0.612%
Cc1ccc(C(=O)Nc2ccc(OCc3ccccc3)cc2)cc1[N+](=O)[O-],"inconclusive: 29.1 µM [activator, single point]",
O=C1C=C(c2ccccc2)C(=O)N1Nc1ccccc1,"inconclusive: 13 µM [activator, partial curve]",
N#CCCn1cc(C(=O)Nc2ccc(C(=O)O)cc2)c(-c2cccc(Br)c2)n1,"inconclusive: 20.6 µM [activator, partial curve, poor fit]",
O=C(Nc1ccccc1)O/N=C(\c1ccccc1)c1ccccn1,,inactive: -0.67%

Structure (SMILES),Potency,"activity, positive = re-replication"
Cc1cc(C)cc(C(=O)Nc2nnc(SCC(=O)NCC3CCCO3)s2)c1 (stereo not drawn),"inconclusive: 29.1 µM [activator, partial curve, poor fit]",
C#Cc1ccc([C@H]2C=C(C(=O)O)O[C@@H](OCCCCO)C2)cc1,,inactive: 6.14%
Cc1ccc2nc(N3C(=O)C(O)=C(C(=O)c4ccc(C)o4)C3c3cccc(O)c3)sc2c1 (stereo not drawn),active: 23.1 µM,
COc1cccc(/C=N/NC(=O)C[n+]2ccccc2)c1O,"inconclusive: 29.1 µM [activator, single point]",
O=C(Nc1ccccc1N1CCCCC1)c1cccc(Cl)c1,active: 20.6 µM,
COc1ccccc1-c1noc(-c2ccccc2C(=O)Nc2cccnc2)n1,,inactive: 6.54%
CCOC(=O)C1(CC2CC2)CCN(Cc2cnc(-c3ccc(OC)cc3)nc2)CC1,active: 13 µM,
Cc1ccccc1/C=N/NC(=O)Cc1ccc(Cl)cc1,"inconclusive: 29.1 µM [activator, single point]",
CN(C)C(CNc1ncnc2sccc12)c1cccs1 (stereo not drawn),"inconclusive: 6.51 µM [activator, single point]",
O=C1CCc2cc(S(=O)(=O)N3CCCC3C(=O)N3CCN(c4ccccc4)CC3)ccc2N1 (stereo not drawn),,inactive: 2.26%
O=C(CNCC1CCCO1)Nc1ccccc1N1CCOCC1 (stereo not drawn),"inconclusive: 6.51 µM [activator, single point]",
CCCCN(C(=S)SC)C1CCS(=O)(=O)C1 (stereo not drawn),,inactive: 5.89%
CCCN(CCC)CCN1C(=O)C2C(C(=O)Nc3cccc(SC)c3)C3C=CC2(O3)C1C(=O)NC1CCCCC1 (stereo not drawn),,inactive: -7.55%
CCOC(=O)N1CCN(C(=O)Cn2ncc3ccccc32)CC1,"inconclusive: 6.51 µM [activator, single point]",
COc1ccc(NS(=O)(=O)c2ccc(NC(=S)NC(=O)CC(C)C)cc2)cc1,"inconclusive: 16.4 µM [activator, partial curve, poor fit]",
CCOC(=O)C1=NN(c2ccc(C)cc2)CC1C(=O)OC (stereo not drawn),"inconclusive: 29.1 µM [activator, single point]",
O=C(CN1CCN(S(=O)(=O)N2CCCCC2)CC1)Nc1cc(Cl)cc(Cl)c1,,inactive: 24.2%
O=C(c1ccccc1Cl)N1CCc2ccccc2C1,,inactive: 4.82%
COc1cc(/C=C2\NC(=S)N(C)C2=O)ccc1OCc1cccc(F)c1,"inconclusive: 29.1 µM [activator, single point]",
CCOc1ccccc1Oc1coc2cc(OCC(=O)O)ccc2c1=O,,inactive: -9.15%
CCCOc1ccc(C2=NNC(=O)CC2)cc1,,inactive: 11.5%
Cc1nnc(SCC(=O)N2c3ccccc3C(C)(c3ccccc3)CC2(C)C)s1 (stereo not drawn),"inconclusive: 18.4 µM [activator, single point]",
CNS(=O)(=O)c1ccc(NC(=O)C(CCSC)NC(N)=O)cc1 (stereo not drawn),"inconclusive: 5.8 µM [activator, partial curve, poor fit]",
